In the supplement of paper PMC3694890:
± gives the uncertainty stated by the source. Some of the results follow. A small y stands for phosphotyrosine.

Biological target: GRB2 (endogenous complexes from cell lysate), P62993
Assay: GRB2 complex binding differential signal (pY peptide minus Ala control peptide) (fluorescence intensity units); higher = stronger GRB2 complex binding
Experimental: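 In situ synthesized µParaflo PepArray of 6-mer peptides, each starting with an N-terminal phosphotyrosine (lowercase 'y' = pY) followed by 5 native residues. Peptides are tethered to glass through a long linker. Chips were incubated overnight at 4°C with total cell lysate (1 mg in 1 mL) from MCF10A, MCF7, T47D or MDA-MB-231 cells. Bound endogenous GRB2-containing complexes were detected with rabbit anti-GRB2 and an Alexa647 secondary antibody. Signals are background-subtracted and averaged over replicate spots, then the matched Ala-substituted control peptide signal is subtracted (differential signal).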
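Also: phosphopeptide probes on the chip at 1–4 µM, lysate proteins bound in 20 mM Tris pH 7.0 buffer with 140 mM NaCl, 1% Triton X-100 and 5% glycerol.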

Binder	GRB2 complex binding differential signal (MCF7)	GRB2 complex binding differential signal (MCF10A)	GRB2 complex binding differential signal (MDA-MB-231)	GRB2 complex binding differential signal (T47D)
yTTRGG [EPHA3_779/A1]	4220 ± 780	1540 ± 460	700 ± 360	1570 ± 1200
yWNMTN [EPHA8_839/A1]	6270 ± 1800	5510 ± 1600	2140 ± 390	7260 ± 3600
yTTTGG [EPHA7_791/A1]	1910 ± 1500	4140 ± 740	1750 ± 630	1850 ± 900
yEDPTQ [EPHA3_602/A1]	7380 ± 2600	3700 ± 580	3980 ± 510	2410 ± 1600
yTEIFM [EPHA5_982/A1]	616 ± 1900	674 ± 400	992 ± 420	675 ± 1400
yIDPET [EPHA7_608/A1]	3880 ± 790	2280 ± 530	1920 ± 540	840 ± 1000
yEDPNE [EPHB1_600/A1]	2570 ± 470	2690 ± 580	1850 ± 600	606 ± 1400
yEEPGR [EPHA8_616/A1]	6370 ± 1500	5300 ± 880	1530 ± 450	2130 ± 1800
yEDPNR [EPHA7_614/A1]	15200 ± 1100	9760 ± 850	2720 ± 400	1880 ± 2100
yIDPFT [EPHB1_594/A1]	363 ± 460	375 ± 440	1630 ± 580	1660 ± 1100
yTSSLG [EPHB1_778/A1]	1320 ± 430	860 ± 350	1560 ± 370	1600 ± 1100
yRDSFL [EPHB1_928/A1]	482 ± 230	243 ± 150	815 ± 420	337 ± 910
yGEVYV [ABL2_299/A1]	160 ± 210	-91 ± 510	600 ± 340	302 ± 1200
yVDPFT [EPHA4_596/A1]	1550 ± 670	560 ± 240	1700 ± 340	2550 ± 1400
ySSCDT [EPHA3_937/A1]	526 ± 800	115 ± 160	869 ± 310	772 ± 1300
yKDNFT [EPHA4_928/A1]	2060 ± 600	1650 ± 540	781 ± 470	259 ± 1700
yIDPHT [EPHA5_650/A1]	11500 ± 3700	6130 ± 1700	2710 ± 440	1880 ± 1000
